PubChem BioAssay AID1508623 (National Center for Advancing Translational Sciences (NCATS), 2021)
The campaign covered roughly 48,000 compounds. About 450 (0.94%) were called active. About 19% were inconclusive and are not listed. Calls come from the whole dose curve; as a rule, active = well fitted inhibition curve with a large enough effect; inconclusive = small, poorly fitted or top-dose-only effect; inactive = no such curve, though single readings can be large or run the other way. Some of the results follow.

test: Primary qHTS for Identification of Small Molecule Inhibitors of Huntingtin Promoter Activity; conditions: HEK293 HTT promoter firefly luciferase reporter (activity 0% = vehicle and -100% = no light), 24 h; series mostly up to 57.5 µM; activity change, negative = inhibition: at the top concentration; note: nearly all actives have a fitted effect of over 50% in size
In short: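 Luminescence was read after Dual-Glo reagent and a 10 min room-temperature incubation. Values were normalized to vehicle (0% activity) and zero RLU (-100% activity). Reporter HEK293 cells had been exposed to compounds (up to 57.5 uM final) for 24 h.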

Row | Compound | activity change, negative = inhibition
1 | O=C(Nc1ccc(F)c(Cl)c1)N1CCC(CN2CCOCC2)CC1 | inactive: -14.4%
2 | Cc1nc2sccn2c(=O)c1S(=O)(=O)Nc1cc(C(F)(F)F)ccc1Cl | inactive: -13.9%
3 | Cc1ccccc1OCCCCn1nnc2sc3c(c2c1=O)CCC(C)C3 (configuration not stated) | inactive: 3.01%
4 | CCOCCCn1c(SCC(=O)Nc2ccccc2Cl)nc2c(oc3ccccc32)c1=O | inactive: -14.1%
5 | Cc1ccc(CCNC(=O)c2ccc3c(c2)nc2n3CCOC2)cc1 | inactive: 21.2%
6 | CN1C(=O)C2(SCC(=O)N2c2ccc(Cl)cc2)c2ccccc21 (configuration not stated) | inactive: -16%
7 | COCCNC(=O)c1ccc(-c2nc(CS(=O)(=O)c3ccccc3)c(C)o2)cc1 | inactive: 25.7%
8 | CCOc1ccc(NC(=O)CSc2nc3ccsc3c(=O)n2CCCCCC(=O)O)cc1 | inactive: -0.25%
9 | CCc1ccc(-n2nc3ccc(NC(=O)COc4ccc(OC)cc4)cc3n2)cc1 | inactive: 5.64%
10 | CNNCc1ccc(C(=O)NC(C)C)cc1 | inactive
11 | COc1cccc(Cn2c(CNS(=O)(=O)c3ccc(Cl)s3)nc3cccnc32)c1 | inactive: -19.1%
12 | O=C(CSc1nc2c(c(=O)[nH]1)CN(Cc1ccc3c(c1)OCO3)CC2)Nc1ccccc1Cl | inactive: -32.2%
13 | Nc1ccc(C(=O)Oc2ccccc2)c(O)c1 | inactive: 10.5%
14 | CC1=C(C(=O)Nc2ccccc2C)C(c2ccccn2)n2ncnc2N1 (configuration not stated) | inactive: -2.95%
15 | CCC(=O)C1=C(c2ccc(C)cc2)N(C(=O)CC)n2c(nnc2C2CCCCC2)S1 | inactive: -19.5%
16 | CC(=O)N1CCc2cc(S(=O)(=O)NC(CC(C)C)C(=O)Nc3cc(C)cc(C)c3)ccc21 (configuration not stated) | inactive: -16.4%
17 | CCOC(=O)c1nc(NCc2ccc(Cl)cc2)c2c(C)noc2n1 | inactive: 0%
18 | Cc1c(Cl)cccc1NC(=O)CCOc1ccccc1 | inactive: -11%
19 | CCOc1ccc(Cn2c(=O)sc3ccccc32)cc1 | inactive: -14.5%
20 | Cc1cccn2c(=O)c3cc(C#N)c(=O)n(-c4nnc(SCc5ccc(Cl)cc5)s4)c3nc12 | inactive: 2.5%
21 | Cc1cc(C)c2c(c1)c(C)cc1nnc(SCc3ccccc3C#N)n12 | inactive: -10.2%
22 | Cc1ccc(C)c(Cn2c(=O)c3c(nc4n3CCN4c3ccccc3)n(C)c2=O)c1 | inactive: -5.08%
23 | Cc1ccc(NC(=O)CN2C(=O)COc3ccc(S(=O)(=O)NC4CCCC4)cc32)cc1N(C)C | inactive: -18.5%
24 | CC(C)c1noc(-c2ccccc2OCC(=O)Nc2cccc([N+](=O)[O-])c2)n1 | inactive: -3.46%
25 | CCN(CC)S(=O)(=O)c1ccc2c(c1)c(=O)c(C(=O)N1CCN(c3cc(Cl)ccc3C)CC1)cn2C | inactive: -1.79%

Row | Compound | activity change, negative = inhibition
26 | COc1cc(C2CC(=O)Oc3c2c(=O)[nH]c2ccccc32)cc(OC)c1OC (configuration not stated) | inactive: -18.8%
27 | Cc1ccc(-c2cc3nc(-c4ccccc4)cc(C(F)(F)F)n3n2)cc1 | inactive: -18.7% [at 11.5 µM]
28 | O=C(Oc1ccccc1F)c1nc(SCc2ccc(F)cc2)ncc1Cl | inactive: 9.43%
29 | CC(=O)N1CCc2cc(Br)cc(S(=O)(=O)CCC(=O)N3CCN(c4ccccc4Cl)CC3)c21 | inactive: -1.7%
30 | COc1ccc(-c2nc3scc(CCNS(=O)(=O)c4ccc5c(c4)OCCO5)n3n2)cc1 | inactive: -22%
31 | Cc1ccc(CN(C(=O)COc2cc(C)c(Cl)c(C)c2)c2ccccn2)o1 | inactive: 5.12%
32 | CCOc1ccc(-c2c(C)nn3c(C)c(C(=O)Nc4cc(C)cc(C)c4)cnc23)cc1OCC | inactive: -6.3%
33 | COc1ccccc1N1CCN(S(=O)(=O)c2c(C)nc3sccn3c2=O)CC1 | inactive: -7.31%
34 | Cc1cc(C)c2sc(N3CCN(C(=O)c4ccc(N(C)C)cc4)CC3)nc2c1 | inactive: 0%
35 | CCCCCCCCCCCCCCCCCC(=O)OCC(O)CO (configuration not stated) | inactive: 2.93%
36 | CC(C)c1nn2c(=O)cc(COC(=O)c3ccco3)nc2s1 | inactive: 0.48%
37 | COc1ccc(N2C(=O)CSC23C(=O)N(CC(=O)NCCc2ccccc2)c2ccccc23)cc1 (configuration not stated) | inactive: -4.24%
38 | O=C(CSc1nc(=O)[nH]c2c1CCCC2)NCc1ccccc1 | inactive: -6.08%
39 | COc1ccccc1C(=O)Nc1ccc(C(=O)OCc2cc(=O)n3nc(C4CC4)sc3n2)cc1 | inactive: -16.7%
40 | Cc1nn2c(C)c(C(=O)NC(C)(C)C)cnc2c1-c1ccc(F)cc1 | inactive: -11.4%
41 | Cc1ccc(N2CC(NC(=O)c3cc4ccccc4o3)CC2=O)cc1 (configuration not stated) | inactive: -15.2%
42 | COc1ccc(NC(=O)Cn2c(=O)n(Cc3ccccc3)c(=O)c3sc4ccccc4c32)cc1 | inactive: -6.13%
43 | CCCCNC(=O)c1cc2n(n1)CCCN(Cc1ccc(C)cc1)C2=O | inactive: -10.3%
44 | CCOc1ccc(C(=O)Nc2ccc3oc(-c4ccc5ccccc5c4)nc3c2)cc1 | inactive: 15.6%
45 | CCc1ccc(Cn2c(CNS(=O)(=O)c3ccc(C)c(C)c3)nc3cccnc32)cc1 | inactive: -5.78%
46 | CCCCN(C)CCNC(=O)c1cc2c(=O)n(C)c3ccccc3c2n1C | inactive: 10.6%
47 | COc1ccc(CNC(=O)CCc2c(C)c3cc4c(C)coc4c(C)c3oc2=O)cc1OC | inactive: -9.77%
48 | CN1C(=O)c2ccccc2Sc2ccc(NC(=O)c3ccc(C(F)(F)F)cc3)cc21 | inactive: -21.4%
49 | N#Cc1ccccc1NS(=O)(=O)c1ccc(N2CCCCS2(=O)=O)cc1 | inactive: -7.44%
50 | CCCc1nn2c(=O)cc(COC(=O)c3ccc(NC(=O)COc4ccccc4)cc3)nc2s1 | inactive: -9.37%

Row | Compound | activity change, negative = inhibition
51 | CCC(Oc1ccc(F)cc1)C(=O)Nc1c(C(=O)c2ccc(C)cc2)oc2ccccc12 (configuration not stated) | inactive: 9.78%
52 | CCn1cc(C(=O)N2CCN(c3ccccc3)CC2)c(=O)c2cc(S(=O)(=O)N3CCOCC3)ccc21 | inactive: -0.469%
53 | COc1ccc(-c2nc3scc(CCNS(=O)(=O)c4ccc(F)cc4C)n3n2)cc1 | inactive: -26.7%
54 | COC(=O)c1cc2oc3ccccc3c2n1Cc1ccc(Cl)cc1 | inactive: -5.13%
55 | CCN(CC)CCNC(=O)c1cc2c(=O)n(C)c3cc(Cl)ccc3c2s1 | inactive: -2.11%
56 | CCOC(=O)c1[nH]c(C)c(CCC(=O)NCc2ccc(CC)cc2)c1C | inactive: -26.4%
57 | COc1cccc(CN2c3ccccc3-c3nc(SCC(=O)Nc4ccccc4Cl)ncc3S2(=O)=O)c1 | inactive: -36.1%
58 | Cc1ccc(-c2ccc(=O)n(CCC(=O)NCCc3ccccc3)n2)cc1 | inactive: 4.32%
59 | COc1ccc(NC(=O)c2ccc3nc(C(C)C)oc3c2)cc1OC | inactive: -1.49%
60 | COc1ccc(N(C)C(=O)c2cn(C)c(=O)c3cc(OC)c(OC)cc23)cc1 | inactive: -4.06%
61 | Cc1ccc(Cn2c(CO)cnc2SCC(=O)Nc2ccc(C)c(Cl)c2)cc1 | inactive: -23.7%
62 | COc1ccc(NC(=O)Cn2cc(S(=O)(=O)c3ccccc3)c(=O)c3cc4c(cc32)OCO4)cc1 | inactive: -11.8%
63 | CCN1CCc2c(sc(-n3cccc3)c2C(C)NC(=O)Nc2ccc(Br)cc2)C1 (configuration not stated) | inactive: -19.9%
64 | CCCC(=O)OCc1cnc(C)c2oc(=O)c(C(=O)Nc3cccc(C(F)(F)F)c3)cc12 | inactive: -4.63%
65 | CON=C(C(=O)N[C@@H]1C(=O)N2C(C(=O)OCOC(=O)C(C)(C)C)=C(C=Cc3scnc3C)CS[C@H]12)c1csc(N)n1 | inactive: 9.02%
66 | Cc1c(C(=O)Nc2ccccc2)sc2nc(-c3cc4cc(Cl)ccc4oc3=O)[nH]c(=O)c12 | inactive: 1.15%
67 | CCC(=O)Nc1ccccc1-c1nc2ccccc2n(CC(=O)Nc2ccccc2OC)c1=O | inactive: -23.5%
68 | Cc1ccccc1C(=O)Nc1ccc2nc(N3CCCCC3)cc(C)c2c1 | inactive: 14.3%
69 | CCN(CC)C(=O)c1sc2c(c1C)c(=O)n(CCc1ccccc1)c(=O)n2Cc1cc(C)ccc1C | inactive: 0%
70 | CC(C)(C)C(=O)NCC(c1ccc2c(c1)OCO2)N1CCOCC1 (configuration not stated) | inactive: -5.21%
71 | O=C(CSc1nnc(-c2cccs2)o1)Oc1ccccc1Cl | inactive: -1.33%
72 | COc1cccc(N2CCN(C(=O)c3cc4c(s3)-c3ccccc3OC4)CC2)c1 | inactive: -22.6%
73 | Cc1cccc(C)c1NC(=O)C(NS(=O)(=O)c1cccs1)c1ccccc1 (configuration not stated) | inactive: -11%
74 | O=C(Cn1ccn(-c2ccc(F)cc2)c(=O)c1=O)Nc1ccc(F)cc1 | inactive: -6.43%
75 | O=C(Cn1ncc2c3ccccc3n(Cc3cccc(Cl)c3)c2c1=O)Nc1ccc(F)cc1F | inactive: -10.3%

Row | Compound | activity change, negative = inhibition
76 | Cc1cccc(NC(=O)N2CCN3CCCCC3C2)c1C (configuration not stated) | inactive: -8.46%
77 | COc1cc(NC(=O)CCS(=O)(=O)c2ccc3c(c2)n(C)c(=O)c(=O)n3C)cc(OC)c1 | inactive: 2.66%
78 | COc1ccccc1N1CCN(c2csc3ccccc3c2=O)CC1 | inactive: 33.4%
79 | Cc1cccc(C)c1Nc1c(-c2ccsc2)nc2cccc(C)n12 | inactive: -37.1%
80 | COc1cccc(NC(=O)Cn2c(-c3nonc3N)nc3ccccc32)c1 | inactive: -18.9%
81 | COC(=O)c1cc2oc3ccccc3c2n1Cc1ccccc1Cl | inactive: -12.7%
82 | CCOc1ccc(/C=C/c2nc(C#N)c(N3CCC(C)CC3)o2)cc1 | inactive: -19.2%
83 | COc1ccccc1CNC(=O)CCCCn1c(=O)c2ccccc2n(CC(=O)Nc2cccc(Cl)c2)c1=O | inactive: -22.1%
84 | CCc1ccc(Sc2cc(C(=O)NCCCN3CCC(C)CC3)c3ccccc3n2)cc1 | inactive: -25%
85 | COc1ccc(CNC(=O)C(=O)Nc2cccc(C)c2C)cc1 | inactive: 8.86%
86 | O=c1c(-c2cc(-c3ccccc3)nc3c2COc2ccccc2-3)coc2ccc(Cl)cc12 | inactive: -18.6%
87 | CN1CCN(C2=Nc3ccccc3Sc3ccc(Cl)cc32)CC1 | inactive: 8.29%
88 | CCc1ccc(NC(=O)C2CCCN(c3nnc(C)c4c(C)n(-c5ccccc5)nc34)C2)cc1 (configuration not stated) | inactive: 2.13%
89 | O=C(Nc1cc(Cl)ccc1Cl)c1cc(S(=O)(=O)N2CCc3ccccc3C2)ccc1F | inactive: -16.9%
90 | COc1ccc(OC)c(C(=O)CN2C(=O)N(c3ccc(C)cc3)S(=O)(=O)c3ccccc32)c1 | inactive: -21.5%
91 | O=C(Cn1c(-c2cccs2)cc2ccccc21)N1CCN(c2ccc(F)cc2)CC1 | inactive: -30.1%
92 | COC(=O)c1c(-c2cccs2)csc1NC(=O)c1ccc(C)cc1 | inactive: 43.1%
93 | CCOc1ccc(CNC(=O)C2CCN(C(=O)N3CC(CC)Oc4ccc(C)cc43)CC2)cc1OC (configuration not stated) | inactive: -23.9%
94 | Cc1cc(NC(=O)c2cc(-c3ccc(Cl)c(Cl)c3)on2)n(-c2ccccc2)n1 | inactive: -20.7% [at 11.5 µM]
95 | CCOC(=O)CSc1nc2sc3c(c2c(=O)n1-c1ccc(OC)cc1)CC(C(C)C)OC3 (configuration not stated) | inactive: -2.66%
96 | COc1ccccc1NC(=O)Cn1c(=O)n(CC2CCC(C(=O)NCCc3ccccc3)CC2)c(=O)c2ccccc21 (configuration not stated) | inactive: -9.26%
97 | Cc1cc(Br)ccc1NC(=O)c1c(C)oc2ncnc(N3CCCCC3)c12 | inactive: -6.79%
